# Experimental data taken from the RNAGym collection of RNA variant scans (doi:10.1073/pnas.2313332121).
# Variants at the floor of the assay are shown more often than the library holds them.
# B1: TPR 5TU (parent)
# chain: GGAUCUUCUCGAUCUAACAAAAAAGACAAAUCUGCCACAAAGCUUGAGAGCAUCUUCGGAUGCAGAGGCGGCAGCCUUCGGUGGCGCGAUAGCGCCAACGUUCUCAACUAUGACACGCAAAACGCGUGCUCCGUUGAAUGGAGUUUAUCAUG
# Variants of: B1
# Experiment: polymerase ribozyme fitness, log enrichment relative to wild type (log ratio); higher = more active; in vitro selection for triplet polymerase activity
# How it was run: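 Only genotypes with ≥10 input reads and ≥1 read per output were kept after Illumina sequencing of input and output libraries. These libraries were PCR-built, transcribed mutants of each subunit of a heterodimeric triplet polymerase ribozyme, each put through one triplicate in vitro selection round with frozen incubation at −7 °C, gel excision of extended constructs, streptavidin-bead capture and RT-PCR. Fitness is a logarithmic ratio of genotype enrichment to wild-type enrichment, from inverse-variance-weighted replicate averages, with the logarithm in base 2.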
row,Variant,polymerase ribozyme fitness (log ratio)
1,A17U C87U,-1.75
2,A17G A39C U82G C85U A113U,≤ -4.2
3,A17U A22U C51U U55A C75A C85U U101A C114U A115G G124A,≤ -4.2
4,A17C A30U A52U,≤ -4.2
5,A17U A24C U53G U55A C57U G92C G133C,≤ -4.2
6,C18A A24G G25A A39U C63U C75U C96U A107C,≤ -4.2
7,A17C A19U A29C C32U C96U A97U A119U A120C,≤ -4.2
8,C18G A24C C79U C85U C96A A110U C125A G143A,≤ -4.2
9,A17G U44A A91G,≤ -4.2
10,A17G A29C C32G G48C,≤ -4.2
11,A17U A22G A39C C76U A91G U139C A150C,≤ -4.2
12,C18G U44A A49C C96G U101G,≤ -4.2
13,A17C A30U G84C C85A C103G,≤ -4.2
14,A17U U101A U139G A142U,-3.82
15,C18G G25U A138G,≤ -4.2
16,A17U U56C G74U C76U G84U C125G A138C,≤ -4.2
17,C18A C93G A97G G140C A147U C149G,≤ -4.2
18,C18U A24C C35G G65C A66U G83A A89U A138G A150U,≤ -4.2
19,A17U C36G G67U C87G C95G C99A C103A,≤ -4.2
20,A16U G34A G70A C95G A97C U101G C105U G140C,≤ -4.2
21,A17G A20U U44A A60C A91C C129A,≤ -4.2
22,C18U A52U U127A,≤ -4.2
23,A16U G50A C95G C118G,≤ -4.2
24,A17G C18G A20U U53A C93A C96U C125A,≤ -4.2

row,Variant,polymerase ribozyme fitness (log ratio)
1,A16U C57A C99G U104C,-3.73
2,A17U A22C A29C G48C C54U,≤ -4.2
3,A17U A26U C75U C76G A91U,≤ -4.2
4,C18G A26U C96A,-2.84
5,C18U A19U C79G U82A U109C,≤ -4.2
6,A17C C54A G71C G84A C93G U139A,≤ -4.2
7,A17C U56A C76A C131A U134G,≤ -4.2
8,A17C A23U C35A G86U G94A C99A U109G U151C,≤ -4.2
9,A17U C54A U90G C96A C118G,≤ -4.2
10,A17G A40U U55A U56A C103A A119G U134A,≤ -4.2
11,A17G A24C A39G A52C U56A G67A A98U C103G G133A,≤ -4.2
12,A17G A21U A26U A29U U53C C93G C96A C116G,≤ -4.2
13,A17U C32G G58U U61G G86U C93A C108U G128C A142U U145C,≤ -4.2
14,A17U U33A C36A C76A G94A G117U C129U,≤ -4.2
15,C18G C51A C76G,≤ -4.2
16,C18G A23U G48U C51U A52G G71C,≤ -4.2
17,A17C A21C C72G C75G C93G A147C U151G,≤ -4.2
18,A17U A21G G48C U111G C118A,≤ -4.2
19,A17C G65C G71A G94A,≤ -4.2
20,A17C C35U G74A C76A U78G,≤ -4.2
21,A17G A21C U44A A91C C108U,≤ -4.2
22,A17U A28G G59A G68A G81U G84A C87A U146C,≤ -4.2
23,C18U A41G C85A U134A,-3.02
24,A16U U31A C57A G88A,≤ -4.2

row,Variant,polymerase ribozyme fitness (log ratio)
1,C18G G48C A66G C93U A110G G133A,≤ -4.2
2,A17G U53A C75G A91G A113G G143A,≤ -4.2
3,A17C A39U G58A C95A G141C,-2.82
4,A17G A21G C57U C96A A137U A138G,≤ -4.2
5,A17U A39C A60C G86C C87A,≤ -4.2
6,A17G A39G U56A C85G A115G,-3.92
7,A17C C35A G68C C69A A91U A106C,≤ -4.2
8,C18G G81U G92U U148A,≤ -4.2
9,C18G A23C G25C C43U G83A U104G C116U G152U,≤ -4.2
10,C18G A22C A40G G42A C75A C79U C95G C125G,≤ -4.2
11,A16U C69A U145G,-3.75
12,C18U A26U C75G G83A A122U G143A,-3.81
13,C18A G74C C93A,≤ -4.2
14,C18U C57A G84A U151G,≤ -4.2
15,A17U C38U C57U U78C G80U C87A U90C C116G U146C,≤ -4.2
16,A16U G94C,-2.55
17,A17U U44G U45A G74C G83U A89U C118A,≤ -4.2
18,A17U U78A C87U U101G A120U A142G,≤ -4.2
19,A17U C75G C93A U134A,≤ -4.2
20,A17C G133A U144A A147C,-3.99
21,A16U C57G G67U G86U A91G,≤ -4.2
22,A17U A30G G42U G81C C85U A122U,≤ -4.2
23,C18U C32G A41C G94A,≤ -4.2
24,A17U A52C A64C G133A A138C,≤ -4.2

row,Variant,polymerase ribozyme fitness (log ratio)
1,A17C U31G C43G U53A A73G U90A G92A C116G,≤ -4.2
2,A17C A28U C43A C76A G83C C93A,≤ -4.2
3,C18U A37G U56A C87G C103U,≤ -4.2
4,A17G A21U C27U C54U U90C G94A C131U,≤ -4.2
5,C18G A24G A49C C87U U90G A98G G124U,≤ -4.2
6,C18U A20U C103A G124A,-3.82
7,A17U A64G A73U U102G A121U,≤ -4.2
8,C18G C32G A66U A89G C95G A107U,≤ -4.2
9,A16U C79U G86A A91U,≤ -4.2
10,A17C C38A U55G G86U C116G A122G,-2.93
11,A17G A113C,-2.83
12,A17C G133A,-3.15
13,C18G U31A A120G G128U A137G,-4.17
14,C18G A23U G46C C57G C87G C103U A137U,≤ -4.2
15,C18G A24G U56A A60G C76G A91C U104G G124U,≤ -4.2
16,A16U U82G C95U U135G A137G G140C,≤ -4.2
17,A17U G100U U134A U145G,≤ -4.2
18,C18U C32A C43U G83C U145C,≤ -4.2
19,A17C U44G G88A C95G C103U G141C,≤ -4.2
20,A17G A49C A73G G86U,≤ -4.2
21,C18G A21G A24U A41C U53G C54G G84U G92U C93G G143C,≤ -4.2
22,C18G A21C A29U C85A C114A U145G,≤ -4.2
23,A17G G62C G81A,-1.76
24,A17G G59U G80A C85A,-0.447

row,Variant,polymerase ribozyme fitness (log ratio)
1,A17U C35A C63U A142C A150C,≤ -4.2
2,A17C A39U A47C A137G C149A,≤ -4.2
3,A17U G42U C99A C105U A120U,≤ -4.2
4,A17C A41C C87U C108A,≤ -4.2
5,A16U C57G G68A G81A C96G A137G G143C U144A,≤ -4.2
6,A17U G46C U90G,≤ -4.2
7,C18G G58U G117A A122G A142C,≤ -4.2
8,A17G C36A C99G A122C U151C,≤ -4.2
9,A17C A47G A52G G84C C108A U144G,≤ -4.2
10,A16U U90A A107U C149G,≤ -4.2
11,A17G G92A A120G A122G C125A,≤ -4.2
12,A17U A28U C32A A52G C54A A73G G88A G143C,≤ -4.2
13,A17U A28U C38U,≤ -4.2
14,A16U C93U G100U A115G,≤ -4.2
15,A17C C57A C114U,-1.86
16,C18U A40U U77G G84U C96U U151C,≤ -4.2
17,A17G A22C U61A G84U C96U U109A U111A G141A,≤ -4.2
18,C18G C32A A47C C85G A97U C99U C125G U127C,≤ -4.2
19,A17G A29U G67U G100A C123G C132G,≤ -4.2
20,A17U G67C A91C C95U G100U A106U,≤ -4.2
21,A17U C57U G71A U78G G81U C96U A137G A142U,≤ -4.2
22,C18U A29U A52C C93A C125G U144A A147U,≤ -4.2
23,A17C A26U C69A C79A C85A G94A A147U,≤ -4.2
24,A17G G48U C87U A89U A119C,-2.96

row,Variant,polymerase ribozyme fitness (log ratio)
1,C18U C35U U55G A91G A106G G141A,≤ -4.2
2,A17C A28U U44C A52U G94U A97G A142G,≤ -4.2
3,C18U A39G U61C C87G C93G C108G,≤ -4.2
4,C18U A20C U53A G70C,≤ -4.2
5,A17U A52C C75G C93U A138C C149G,≤ -4.2
6,A17G G62A G86A A89U G112A G143A,≤ -4.2
7,C18G A39G C54A U78A C93U,≤ -4.2
8,C18G A26G C57G G86A G88C U139G G141U,≤ -4.2
9,A17U G58C C95U C99A,-1.96
10,A17G A29G C36G C38G G84U A137U U145A,≤ -4.2
11,C18G A24U C76A C95U G141A,-3.98
12,C18A A30G C38U G48C G71A A89U C96U A97C,≤ -4.2
13,A17U A29U U55A C69A C75G C87A G94A C95U,≤ -4.2
14,C18G A26C A37C C93U C103G,≤ -4.2
15,A17C A29C A66U G67A A91G C96U A115G C116A,≤ -4.2
16,C18G G94A,-1.09
17,C18G C57G A66C C95U A120G,≤ -4.2
18,C18G U56A A73U G83C,-3.86
19,C18A A19G C54G G58A G62A G83A C87A A107G G133A,≤ -4.2
20,A17C U31C G50C C51A,-0.997
21,A17U U33G G34C A47G,≤ -4.2
22,A17C A26U A49C,≤ -4.2
23,A17C U44G C85G C93U G141A,≤ -4.2
24,A17G A21G C96G,0.392

row,Variant,polymerase ribozyme fitness (log ratio)
1,C18G U33C A91C,≤ -4.2
2,C18G A24G C32U C57U C63G C93A A110U A122C U146C U148C,≤ -4.2
3,A17C A66G C72A C96U U130A G140C A142G,≤ -4.2
4,A17U A37C A60G C93U C96G A97G A107G,≤ -4.2
5,A17G C27G A66G A107G A115C,≤ -4.2
6,A17U C85A C96U A137U U144A,≤ -4.2
7,A17G C27A,≤ -4.2
8,C18G G59A G80A C93A U102A,≤ -4.2
9,C18G G71U G94C A120C G124U A150C,≤ -4.2
10,C18U A30U G46A A73G C96G A142C A150G,≤ -4.2
11,A17G A37G U44G G68C A89U C96U G117U A142G,≤ -4.2
12,A17U G59C G86C A113U,≤ -4.2
13,A16U U31G G59C C87G U135C G136C U144A,≤ -4.2
14,C18A C38U C51U C96G C116G U148A,≤ -4.2
15,C18G A20C G34U U55G C118U C123U,-4.18
16,A17U G59A G86A A89U U134C U146A A147G,≤ -4.2
17,A17U A37U G59C G67C A91U A113C C123G,≤ -4.2
18,A17C U102A,-0.663
19,A17G C51U C75A G86A A113C C132A U144G,≤ -4.2
20,A17U A39G C99G A110C C125U A138C,≤ -4.2
21,A16U U55G C87U,-2.67
22,A16U C69U G88C C108G,≤ -4.2
23,A17U U53G C99A C125G G141U U146C,≤ -4.2
